Results on 42 sequences are retold here after PMC7819943, “Rice protein-binding microarrays: a tool to detect cis-acting elements near promoter regions in rice”.

The list shows a part of the results.

In the test the target is T1, OsWOX13 (Oryza sativa, UniProt Q5QMM3 1-267).
T1 sequence: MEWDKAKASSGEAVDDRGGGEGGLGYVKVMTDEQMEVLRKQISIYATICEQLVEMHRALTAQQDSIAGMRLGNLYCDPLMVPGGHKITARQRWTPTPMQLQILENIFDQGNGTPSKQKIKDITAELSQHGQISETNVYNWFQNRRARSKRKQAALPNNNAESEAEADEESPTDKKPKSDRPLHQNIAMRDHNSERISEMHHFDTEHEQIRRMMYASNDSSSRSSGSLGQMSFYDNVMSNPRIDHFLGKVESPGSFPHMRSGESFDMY
Nature of the test: protein-binding microarray (RPBM); PBS, 2% BSA, 51.3 ng/ul salmon testes DNA, 50 uM zinc acetate, 200 nM TF, 25 C, 1 h; high values mean tight binding. To be noted: protein: recombinant; tags: N-terminal polyhistidine and DsRed monomer fusion (pET32a); label: CyDye5-dUTP incorporated in the synthesized complementary strand; 3' TTTTT single-stranded linker to array surface; dsDNA, one strand shown. In outline: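 Transcription factors were each fused at the N-terminus to a polyhistidine tag plus DsRed and expressed in E. coli BL21-CodonPlus before Ni–NTA purification. Binding to a double-stranded custom Agilent array was carried out with 200 nM protein at 25 °C for 1 h in PBS, 2% BSA, salmon testes DNA and 50 µM zinc acetate. The binding signal is per-feature fluorescence intensity, in arbitrary units, on an Axon 4000B scanner.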
For the sequence “GTTTTACAAATTTTGATAAGTTAACAAACTAAACACAACCCGGAGTCACCTAGTGCAG”, the binding signal was 5010 fluorescence intensity (a.u.). Consider “CTCTTAGAAATTAGATTACGACTTTACGAGTATAAAGCTCCGGAGTCACCTAGTGCAG”, for which the binding signal is 4710 fluorescence intensity (a.u.). With “GCTCCTGATTTGCGTCGAGGTGCACAGGAAGAGCCACACACGGAGTCACCTAGTGCAG”, the binding signal is 7330 fluorescence intensity (a.u.).

Consider “CGGTTTTGATTAGGTAAGGGACGCTGAATATCTGATTTTGCGGAGTCACCTAGTGCAG”, for which the binding signal was 18200 fluorescence intensity (a.u.). As for “ACATGATGAGCACTGCACTGGAACTGAATGCATCATATCACGGAGTCACCTAGTGCAG”, the figure is 5790 fluorescence intensity (a.u.); as for “GTCCATTAGCGTGTGATTAATTAAGTATTAGCTAATATTTCGGAGTCACCTAGTGCAG”, 11200 fluorescence intensity (a.u.). Regarding “TACGTATACTTTTGTCAATTATCACAAAACTACAGATTTACGGAGTCACCTAGTGCAG”, the binding signal is 3660 fluorescence intensity (a.u.).

In the case of “TTGAATGGAATTGGATTTCGAAACCATTTTGAGTGGTGTACGGAGTCACCTAGTGCAG”, the binding signal is 8180 fluorescence intensity (a.u.). As for “TGGAAAATTGGAAATCTCCATGCGGTTCCGTGTCGTCCAACGGAGTCACCTAGTGCAG”, the figure is 8920 fluorescence intensity (a.u.); as for “ATCCATGATTAACAGTTGATTACTGTAGCAAATCATGGATCGGAGTCACCTAGTGCAG”, 34400 fluorescence intensity (a.u.); as for “TTCTGCTAATTGTTTGATTTTGTAATATCAGTTGATCTTCCGGAGTCACCTAGTGCAG”, 27300 fluorescence intensity (a.u.).

Consider “CATTATTGCCCTTGACAGTTTTCTTATTTACCTGCCATACCGGAGTCACCTAGTGCAG”, for which the binding signal was 7640 fluorescence intensity (a.u.). “CTATGATTTTACAATTTAAAATTATATTATATAAAGTCAGCGGAGTCACCTAGTGCAG”: the binding signal was 46800 fluorescence intensity (a.u.). The figure for “ATGAAATTGGGGAGGAATTGAAGTTGAAGGACTCCATGTACGGAGTCACCTAGTGCAG” is 8920 fluorescence intensity (a.u.). The figure for “GGAGGGATTGGAAATTTAGAGGGATGAGACTATTAAGAGTCGGAGTCACCTAGTGCAG” is 6190 fluorescence intensity (a.u.); for “TGACTTGATTGAGTAGCTGCTATGCTAGGCCGTGTAATGCCGGAGTCACCTAGTGCAG” it is 46700 fluorescence intensity (a.u.); for “CTACTTAACTGAACAAGTGAACAATCCACTTATCTTATCACGGAGTCACCTAGTGCAG” it is 8000 fluorescence intensity (a.u.). On to “ACTAAATCACAAAACTTAAATGTTTATAACTCAAACATAACGGAGTCACCTAGTGCAG”, for which the binding signal was 3940 fluorescence intensity (a.u.).

“CTACTAATTAGTAGTGCTGTGCATAAGCTCAGACTCAGGGCGGAGTCACCTAGTGCAG”: the binding signal was 34800 fluorescence intensity (a.u.). For “CATATAATTAAACAATTCCATTCCAAGTATATATATGTTACGGAGTCACCTAGTGCAG”, the binding signal is 3200 fluorescence intensity (a.u.). On to “AGAAAGTAATTAGAAAGTGGCATGTTGTTTCAATGTCATCCGGAGTCACCTAGTGCAG”, for which the binding signal was 8070 fluorescence intensity (a.u.). As for “AGACTCCACTGATTATCAGCCTCCTACCCCTACCTGTCAACGGAGTCACCTAGTGCAG”, the figure is 7010 fluorescence intensity (a.u.).

Consider “ACCTAATTGGTCACTAACTGCTAATCTTTCATCCACTAACCGGAGTCACCTAGTGCAG”, for which the binding signal is 47200 fluorescence intensity (a.u.). The figure for “AACTAAAACACAGAAATTGATAGTCCAGCAAAACTAGCCCCGGAGTCACCTAGTGCAG” is 5180 fluorescence intensity (a.u.); for “CTACTAATTAATCATCCTCGATCGATCGATCTCGGTCGTGCGGAGTCACCTAGTGCAG” it is 34400 fluorescence intensity (a.u.); for “ATAGCTAATAATCAATTAATTACGCTCTAATATACCGCTCCGGAGTCACCTAGTGCAG” it is 42300 fluorescence intensity (a.u.).

For “CTTTACAAATTTAAATCTATGATTACGTAGATAACATTTGCGGAGTCACCTAGTGCAG”, the binding signal was 25000 fluorescence intensity (a.u.).

Consider “TGATAAACTGACGTCATGTGATTTATGGTGCAGTGATTTGCGGAGTCACCTAGTGCAG”, for which the binding signal is 20600 fluorescence intensity (a.u.). As for “TTGCTTGATTAGATGCAGAAAGAAGCGAGGTTTATTAAACCGGAGTCACCTAGTGCAG”, the binding signal was 24900 fluorescence intensity (a.u.). The figure for “CTAAATTATTATTATTTTAAATCCTATACTCACAAGATTTCGGAGTCACCTAGTGCAG” is 8970 fluorescence intensity (a.u.); for “TTTAATTATTCTCTAGCTACTTACTAAAGTTTGATATACTCGGAGTCACCTAGTGCAG” it is 6840 fluorescence intensity (a.u.). As for “ACTAATGAAATGGCCAGATCTTATAAATCCTGGGTGGGTACGGAGTCACCTAGTGCAG”, the binding signal was 4270 fluorescence intensity (a.u.). As for “TTTCAAATCTAACTATAGTATAATTATAATATAATTTTACCGGAGTCACCTAGTGCAG”, the figure is 8010 fluorescence intensity (a.u.); as for “GATGCCTAATTGAATGTTCGTCGCAATCAGTTTCTAGGGACGGAGTCACCTAGTGCAG”, 35000 fluorescence intensity (a.u.); as for “TAGTAGCTTAATTGCTAGCTAGTGGTCACTGGTCAGTATACGGAGTCACCTAGTGCAG”, 4360 fluorescence intensity (a.u.).

Take “AGGAATTATATTGTTAATTCCCCTCTCATTTGAGTGCTTTCGGAGTCACCTAGTGCAG”: the binding signal is 8680 fluorescence intensity (a.u.). Regarding “TTTGAGTGATTGACAGGAAACAAATCCACCACTATCTGTTCGGAGTCACCTAGTGCAG”, the binding signal is 62400 fluorescence intensity (a.u.). The figure for “GTTTCGCGGCCTGATTAGCTTTACACAATTGCTATGAAACCGGAGTCACCTAGTGCAG” is 5420 fluorescence intensity (a.u.); for “AAATTAATTGCTCAATTTGTATGTAAATCACGAGACGAATCGGAGTCACCTAGTGCAG” it is 44400 fluorescence intensity (a.u.); for “GACGCGTCGGTGCTGATTGACTCGACGGCCGGCAACGTGGCGGAGTCACCTAGTGCAG” it is 22800 fluorescence intensity (a.u.). The figure for “CACACAACATCATCAATCACCAGCTTGAGCTTATAACTGACGGAGTCACCTAGTGCAG” is 11800 fluorescence intensity (a.u.); for “GTCGGATTGGTGCTTGCATGATCTGTTGGTAGATGGGCTGCGGAGTCACCTAGTGCAG” it is 3390 fluorescence intensity (a.u.).
